# Test results as given in PubChem BioAssay AID686979 (National Center for Advancing Translational Sciences (NCATS), 2013).
# In all, about 420,000 compounds went through this assay and about 50,000 (12%) were called active. Inconclusive means that the source gave no clear call. Such entries were picked first, then a sample of the others. Calls come from the whole dose curve; as a rule, active = well fitted inhibition curve with a large enough effect; inconclusive = small, poorly fitted or top-dose-only effect; inactive = flat fitted curve, though single readings scatter. Potencies of inconclusive entries are left out as doubtful fits.
# Assay: qHTS for Inhibitors of human tyrosyl-DNA phosphodiesterase 1 (TDP1): qHTS in cells in presence of CPT; note: nearly all actives have a fitted effect of over 55% in size
# Settings: chicken DT40 Tdp1-/-;hTDP1 cells + 20 nM CPT, ATP luminescence, 48 h; activity change, negative = growth inhibition: at 46.2 µM (top of the series) unless noted
# Outline: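 Chicken DT40 Tdp1-/- cells complemented with human TDP1, 400 cells/well, exposed to compounds plus 20 nM camptothecin for at least 48 h at 37 C; viability read as ATP content by CellTiter-Glo luminescence.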
# % is set by controls: 0 for no effect and ±100 for the full control effect; potency is the fitted concentration of half-maximal effect; tags give direction and shape of the fitted curve.
SMILES,Potency,"activity change, negative = growth inhibition"
COC(=O)c1ccc(NC(=O)CSc2nc3ccc(N4C(=O)C5C6C=CC(C6)C5C4=O)cc3s2)cc1 (stereo unspecified),active: 20.6 µM,–
CN(Cc1cccc(-c2cccnc2)c1)C(=O)Oc1ccc([N+](=O)[O-])cc1,active: 18.4 µM,–
CCN(CC)C(=O)c1ccc(NC(=O)Nc2ccccc2F)cc1,active: 4.61 µM,–
CCCC(=O)N(C)C1=Nc2ccc(Cl)cc2C(c2ccccc2)=[N+]([O-])C1,"inconclusive [inhibitor, partial curve]",–
Cc1[nH]c2ccc(OC(F)(F)F)cc2c1CCNCc1cccc([N+](=O)[O-])c1,"inconclusive [inhibitor, single point]",–
COC(=O)c1ccc(CN2CCSC2=N)cc1,inactive,–
CC12C=CC(=O)CC1CCC1C2CCC2(C)C(O)C(O)CC12 (stereo unspecified),"inconclusive [inhibitor, single point]",–
CC(Cc1ccccc1)NC=O (stereo unspecified),inactive,–
CC1=NN(c2ccccc2)C(=O)C1/C=C1/C(=O)NC(=O)N(c2cc(C)cc(C)c2)C1=O (stereo unspecified),–,inconclusive: -32.7% [inhibitor]
CCCCn1nnnc1C(c1ccccc1)N1CCC2(CC1)C(=O)NCN2c1ccccc1 (stereo unspecified),"inconclusive [inhibitor, single point]",–
CCOC(=O)N1CCN(C(=O)Cn2ncc3c4ccccc4n(Cc4ccc(F)cc4)c3c2=O)CC1,active: 1.64 µM,–
CN1CCc2nc(SCc3ccccc3Br)c(C#N)cc2C1,"inconclusive [inhibitor, single point]",–
Cc1nc2ccccc2c(=O)n1-c1ccc(Cl)cc1Cl,active: 13 µM,–
COc1c(C)cc(C(=O)C2CCCN(Cc3cccc(O)c3)C2)cc1C (stereo unspecified),"inconclusive [inhibitor, partial curve]",–
NC1(C(=O)O)CCCc2ccc(N(CCCl)CCCl)cc21 (stereo unspecified),active: 1.64 µM,–
Cc1nc(-c2ccc(-c3ccc(C(=O)N4CCc5cc6c(cc54)C4(CCN(C)CC4)CO6)cc3)c(C)c2)no1,active: 7.5 µM,–
Cc1ccc(-n2cc(CNC(C)Cc3cnccn3)c(-c3cccc(C)c3)n2)cc1 (stereo unspecified),active: 13 µM,–
c1ccc2[nH]c(CCNC3CCCCC3)nc2c1,"inconclusive [inhibitor, partial curve]",–
C[C@]12CCC3C(CC[C@H]4C[C@H](O)CC[C@]34C)[C@@H]1CC[C@@H]2C(=O)CO (stereo partly specified),inactive,–
CCOC(=O)c1c(C)n(CCN2CCN(C)CC2)c2ccc(OC)cc12,"inconclusive [inhibitor, single point]",–
N#CCCn1cc(C(=O)Nc2ccccc2Br)c(-c2ccc([N+](=O)[O-])cc2)n1,inactive,–
